The whole screen tested about 350,000 compounds, of which about 9,900 (2.8%) were called active. The shares of active, inactive and inconclusive entries below differ from those in the screen. The call rests on the fitted dose curve; in most records, active means well fitted activation curve with a large enough effect; inconclusive means small, poorly fitted or top-dose-only effect; inactive means no such curve, though single readings can be large or run the other way. No potency is given beside an inconclusive call; the fits are too rough.
Assay: A quantitative high throughput screen for small molecules that induce DNA re-replication in MCF 10a normal breast cells. Further: nearly all actives have a fitted effect of over 50% in size. On activity, positive = re-replication: % of control where 0% means no effect.
Conditions: MCF 10A DNA re-replication, Hoechst nuclear intensity, 48 h; activity, positive = re-replication: at 46.1 µM (top of the series)
Potency means the concentration at half of the fitted maximal effect; tags describe the fitted curve by direction and shape.

| SMILES | activity, positive = re-replication | Potency |
| --- | --- | --- |
| COc1cc2cc(CCOC(=O)c3ccco3)oc(=O)c2cc1OC | inactive: 3.93% |  |
| Oc1ccc(-c2nc3ccc4ccccc4c3c3c2CCC3)cc1O |  | inconclusive [activator, partial curve, poor fit] |
| O=C(NCC1CCCN1S(=O)(=O)c1cccs1)C(=O)Nc1ccccc1 (stereo unspecified) |  | inconclusive [activator, full curve, poor fit] |
| COc1ccc(OC)c(Nc2cc(C)nc3ccc(C)cc23)c1 |  | inconclusive [activator, single point] |
| CCOc1ccc(S(=O)(=O)N(C)CC(=O)NCc2ccc3c(c2)OCO3)cc1 | inactive: -14% |  |
| Cn1c(=Nc2ccccc2)sc2ccccc21 |  | inconclusive [activator, single point] |
| Cc1ccc(NC(=O)C2CC(=O)OC23CCOC(C)(C)C3)cc1 (stereo unspecified) |  | inconclusive [activator, single point] |
| COc1ccc(CCNS(=O)(=O)c2cnc(Cl)c(Br)c2)cc1OC |  | inconclusive [activator, single point] |
| O=c1cc(N2CCCCC2)c(-c2ccccc2)nn1Cc1c(Cl)cccc1Cl |  | active: 20.6 µM |
| Cc1cnc(C(=O)Nc2nnc(C(C)C)s2)cn1 | inactive: 1.24% |  |
| COc1ccc(/C=C/C(=O)Nc2cc(C)nn2-c2nc3ccccc3[nH]2)cc1 |  | inconclusive [activator, single point] |
| C[C@H](CO)N1C[C@H](C)[C@@H](CN(C)C(=O)Nc2ccccc2)Oc2ccc(NC(=O)Cc3ccccc3)cc2C1=O | inactive: -58.2% |  |
| CCCCn1c(N)c(N(CC(C)C)C(=O)C2CCCO2)c(=O)[nH]c1=O (stereo unspecified) | inactive: -0.764% |  |
| CCCCn1c(=N)n(CCOc2ccc(C)cc2)c2ccccc21 |  | inconclusive [activator, partial curve, poor fit] |
| Cc1ccc(S(=O)(=O)N(C)CC(=O)Nc2nc3ccccc3s2)cc1 |  | inconclusive [activator, single point] |
| CC1CCN(C(=O)C(C)NCc2ccc(F)cc2)CC1 (stereo unspecified) | inactive: 6.56% |  |
| CC(C)(C)NC(=O)C(c1ccncc1)N(Cc1cccs1)C(=O)Cn1nnc(-c2ccc(F)cc2)n1 (stereo unspecified) |  | active: 10.3 µM |
| Cc1ccc(-n2ncc3c(=O)n(Cc4cccnc4)cnc32)cc1 | inactive: -0.799% |  |
| CN1C[C@@H]2[C@@H]3C(=O)N(Cc4ccccc4)C(=O)[C@@H]3[C@](C)(C1=O)N2C(=O)c1ccc(Cl)cc1 | inactive: 1.73% |  |
| Cc1ccc2cccc(OCC(=O)Nc3ccc(N4CCOCC4)cc3)c2n1 |  | inconclusive [activator, single point] |
| C#CCOCCOCCOCCNc1nc(N2CCN(C(=O)CCCCCCCCCCNC(=O)[C@H](CCCCN)n3cc(C)nn3)CC2)nc(N2CCN(C(=O)CCCCCCCCCCNC(=O)[C@@H]([C@H](C)O)n3cc(C)nn3)CC2)n1 |  | inconclusive [activator, partial curve, poor fit] |
| COc1ccc(N2CCN(C(=O)CNS(=O)(=O)c3ccc(Br)s3)CC2)cc1 |  | inconclusive [activator, single point] |
| N#CC(c1cccc(Cl)c1)c1ccc2c(C(F)(F)F)cc(C(F)(F)F)nc2n1 (stereo unspecified) |  | inconclusive [activator, single point] |

| SMILES | activity, positive = re-replication | Potency |
| --- | --- | --- |
| N/C(=N\OC(=O)COc1ccc(Br)cc1Cl)c1cccnc1 |  | inconclusive [activator, partial curve, poor fit] |
| COCCCN=C1NN=C(c2cc(C)n(Cc3ccco3)c2C)CS1 |  | inconclusive [activator, full curve, poor fit] |
| Cc1ccccc1NC(=O)c1ccc2ccccc2c1 | inactive: 3.91% |  |
| O=C(NCCc1ccccc1)C1CCC(CNS(=O)(=O)c2cccs2)CC1 (stereo unspecified) | inactive: 28.4% |  |
| COc1ccc(OCC(O)Cn2c(=N)n(CCN3CCCCC3)c3ccccc32)cc1 (stereo unspecified) |  | active: 25.9 µM |
| Cc1ccc(N2C(=O)N3[C@H](c4ccc(F)cc4)[C@@H]4C(=O)N(C5CCCCC5)C(=O)[C@@H]4[C@]3(Cc3ccccc3)C2=O)cc1 | inactive: 3.92% |  |
| Nc1nc(CN2CCN(C(c3ccccc3)c3ccccc3)CC2)nc(Nc2ccccc2)n1 |  | inconclusive [activator, partial curve, poor fit] |
| O=[N+]([O-])c1c(Nc2ccccn2)cc(Cl)c2nonc12 |  | inconclusive [activator, partial curve, poor fit] |
| O=c1c2ccccc2cnn1CCOc1cccc(Br)c1 | inactive: 14% |  |
| Cc1cc(=O)c(C(=O)O)nn1-c1ccccc1Cl | inactive: 4.17% |  |
| COC(CNC(=O)C1CCCN1C(=O)OCc1ccccc1)OC (stereo unspecified) | inactive: -2.61% |  |
| CCc1cc(C(=O)COc2ccccc2F)c(O)cc1O |  | inconclusive [activator, partial curve, poor fit] |
| C[C@@H](NC(=O)Cn1cnc2c(OCc3ccccc3)ncnc21)c1cccc2ccccc12 |  | inconclusive [activator, single point] |
| Cc1ccc(S(=O)(=O)Oc2ccccc2/C=N/Nc2ccc(C(=O)O)cc2)cc1 |  | active: 18.4 µM |
| CC[n+]1c(C)n(-c2ccccc2)c2ccc(C(=O)OC)cc21 |  | inconclusive [activator, partial curve, poor fit] |
| COc1ccc(NC(=O)CN(C)C(=O)C2=COCCO2)cc1 | inactive: 0.463% |  |
| COc1ccc(CCNC(C)C(=O)Nc2ccc(S(N)(=O)=O)cc2)cc1 (stereo unspecified) | inactive: 0.272% |  |
| O=C(Nc1ccccn1)c1ccco1 | inactive: 0.65% |  |
| O=c1cc(N2CCC3(CC2)OCCO3)[nH]c(=O)n1C1CCCCC1 |  | inconclusive [activator, single point] |
| CCOc1cc2nc3c4ccccc4n(C)c3nc2cc1OCC |  | inconclusive [activator, partial curve, poor fit] |
| CCCn1c(=O)c(C(=O)NCc2ccco2)c(O)c2ccccc21 |  | inconclusive [activator, single point] |
| O=C(COc1ccc(Cl)cc1)NCCCNC(=O)c1cccnc1 | inactive: 2.51% |  |
| CCOC(=O)c1[nH]c2ccc(Br)cc2c1NC(=O)CCN1CCC(C)CC1 |  | inconclusive [activator, partial curve, poor fit] |
